# Results taken from the supplement of paper PMC3334620.
# Whole data set: some 33,000 sequences, median “E-score (-0.5 to 0.5)” near -0.041, cut for the highest 2% near 0.37. Some of the results follow.
# Target: T1, Ecm22 (UniProt Q05958)
# T1 sequence: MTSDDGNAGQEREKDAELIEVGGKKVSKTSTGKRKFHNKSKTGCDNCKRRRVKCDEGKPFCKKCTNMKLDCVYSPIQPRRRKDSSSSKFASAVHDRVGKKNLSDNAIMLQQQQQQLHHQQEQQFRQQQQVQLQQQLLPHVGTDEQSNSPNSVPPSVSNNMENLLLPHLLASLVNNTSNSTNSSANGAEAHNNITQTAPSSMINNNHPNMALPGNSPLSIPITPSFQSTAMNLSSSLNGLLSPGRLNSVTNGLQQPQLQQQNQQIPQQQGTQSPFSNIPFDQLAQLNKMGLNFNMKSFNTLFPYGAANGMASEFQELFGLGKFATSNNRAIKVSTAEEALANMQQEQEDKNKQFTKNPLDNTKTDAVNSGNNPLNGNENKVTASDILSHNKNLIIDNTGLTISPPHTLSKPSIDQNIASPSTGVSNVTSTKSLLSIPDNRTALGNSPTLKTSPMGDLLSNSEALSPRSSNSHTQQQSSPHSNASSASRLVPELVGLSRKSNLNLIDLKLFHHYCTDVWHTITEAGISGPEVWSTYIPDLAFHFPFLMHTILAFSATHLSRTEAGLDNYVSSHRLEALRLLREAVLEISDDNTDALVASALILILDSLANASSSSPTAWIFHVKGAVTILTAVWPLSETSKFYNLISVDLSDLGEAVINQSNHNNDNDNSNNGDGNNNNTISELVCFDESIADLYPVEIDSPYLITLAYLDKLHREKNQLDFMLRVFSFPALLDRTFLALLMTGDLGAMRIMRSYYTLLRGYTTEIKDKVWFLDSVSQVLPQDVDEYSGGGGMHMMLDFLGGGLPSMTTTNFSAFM
# Test: PBM E-score (8-mer binding enrichment) (E-score (-0.5 to 0.5)); higher = stronger / more preferred TF binding; most listed sequences are background and not binding sites
# Settings: protein concentration: 200 nM; construct: GST-full length
# Method in brief: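 Yeast transcription factors, full-length or as DNA-binding domains, were expressed with a GST tag using PURExpress in vitro transcription/translation. At about 100-200 nM they were applied to universal all-10-mer Agilent arrays, double-stranded by primer extension on fresh or once-stripped slides. Fluorescent anti-GST detected bound protein, and masliner normalised the scans. E-scores for ungapped eight-base words, pooled with reverse complements, came from the Universal PBM Analysis Suite.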
row,Sequence,PBM E-score
1,GCCTCGAC,-0.0771
2,ACGTAAGG,-0.0756
3,ATAGATAT,0.107
4,ACAACCTG,-0.0952
5,ATACACCA,-0.107
6,AGTGGGAG,-0.168
7,AGTGTCGC,0.0578
8,ATTTTCCC,-0.145
9,GGCACACC,-0.145
10,CGACTAAG,0.0685
11,GTATTTAA,0.148
12,TCTACGAA,0.312
13,TCTGCAGA,0.0933
14,AGGGCCGA,-0.0414
15,ACGCGGCA,0.0289
16,CGGTAGCA,-0.222
17,CAGGATGC,0.0055
18,AAGCATGC,-0.128
19,AGCTGTGC,0.00514
20,GAAAAGAA,0.0308
21,GAGGATAA,-0.0543
22,ACTGAACA,0.019
23,AGGGCTGA,-0.196
24,AGGTAGCG,0.058
25,TACACATA,0.0407

row,Sequence,PBM E-score
1,ACGCCGGC,0.0119
2,GCATATGC,0.00244
3,AGCAAGAG,-0.216
4,AAGTAAAT,-0.146
5,ATGGACAC,-0.0733
6,CTGCTTTC,-0.11
7,CTCCAATC,-0.0044
8,CAGACACG,0.121
9,GCCCAACC,0.0862
10,ATATTGTC,0.111
11,AAGAGCCT,-0.177
12,AACGTGTG,-0.0203
13,ATGCTAAG,-0.258
14,GTCAGATA,-0.0728
15,ACGCTCAC,0.0568
16,CTGATTGC,-0.203
17,GATACAGC,-0.0604
18,TCTTAAGA,-0.135
19,AAATCGGG,-0.156
20,ATATCTAA,0.0856
21,CTCGGAGA,0.0218
22,GTCCTAGA,-0.188
23,AAACCATG,-0.0146
24,TGACGTCA,-0.0699
25,GAACTACC,-0.0337

row,Sequence,PBM E-score
1,ATCATAGC,-0.0799
2,AGAACAGC,-0.0781
3,GAACACGC,0.0656
4,CTAATCTA,-0.0176
5,CTGCTGAC,0.093
6,CTATGGGA,-0.161
7,AAGTGCCC,-0.34
8,ACCTTTCA,-0.0376
9,ACGCGGCG,0.107
10,GACGATCC,0.00412
11,GGCGTAAC,-0.0339
12,AAATACTT,-0.0709
13,ATGATACA,-0.0736
14,ACATACGC,0.221
15,TGTAAGAA,0.0478
16,CAATCACG,0.0345
17,AATAATGG,-0.062
18,TAACTAGA,-0.134
19,GGTAGATA,0.0794
20,CGGTTATC,0.216
21,ATAAACAG,-0.141
22,ACTGAATA,-0.0244
23,AACCCGCT,-0.238
24,AGAGACCA,-0.136
25,AACGACTA,0.372

row,Sequence,PBM E-score
1,CTTAGGTA,-0.0284
2,CGAGGTAA,0.282
3,TCCGGCAA,-0.0482
4,GCCCCCCA,-0.365
5,ACTTTTCT,-0.105
6,ATGCTGCA,-0.0735
7,CACACAAC,-0.0974
8,ACTGCCGA,0.0815
9,GCTACAGC,-0.0206
10,GATTGGCC,-0.213
11,AAACAGTT,-0.123
12,ACGCACTC,0.0457
13,AAACTTGA,-0.267
14,AGTAGCAT,-0.0436
15,AAGACTCA,-0.237
16,AGTTGCAA,-0.0399
17,CTCATAAC,-0.0818
18,ATGACAAT,0.126
19,ACCGGCGT,0.0869
20,TCGCTACA,0.11
21,ATGAATGC,-0.0891
22,CCACCAAC,-0.119
23,TAAAGACA,-0.196
24,CGCCTCTC,-0.179
25,GAATGCTC,-0.0572

row,Sequence,PBM E-score
1,CAGGCTGA,-0.325
2,CCATAGGC,-0.0851
3,ACGAGCTG,0.411
4,CTTCTGAC,-0.265
5,CAAGCGCA,0.159
6,ACATGAAC,0.0573
7,ATCACAGG,-0.112
8,TGCTCCAA,-0.232
9,GTATTCAC,0.00932
10,TCTCGTAA,0.438
11,AAACGTAC,0.288
12,ATGCTACG,0.242
13,CCCAGTCG,-0.00403
14,GAGCATAA,0.0875
15,AAATTTAA,0.113
16,AATTTCTG,0.138
17,GTTCTGCA,-0.0368
18,ATACGTAG,0.22
19,ACTCAGCC,-0.199
20,CCGTGCTA,-0.249
21,ATGCCCAT,-0.166
22,CATCGTCG,0.0968
23,ACTGCACA,-0.113
24,CGAAGACC,0.132
25,ATCCCCGG,-0.0814

row,Sequence,PBM E-score
1,CTCTTAAG,0.0377
2,AGTCGCCA,-0.167
3,CTTTGAGC,-0.171
4,ATCCTGCG,-0.0454
5,CATTATTC,-0.0305
6,TCCTTCCA,-0.208
7,GGGAAGAA,-0.108
8,ACACAAGG,-0.141
9,ATAGGTCG,0.0323
10,AGACAGCT,-0.329
11,AGTTAATA,0.0875
12,GCACCCGC,0.0501
13,CTCACCGC,-0.0829
14,AGGGTGAT,0.0727
15,CGAATCGC,0.149
16,ACTGCACT,-0.156
17,CGCAAAAC,0.187
18,CATGACCG,0.0281
19,CTTGAGAC,-0.25
20,CACGAATG,0.052
21,ATAGGTAA,-0.0147
22,AGACCTCT,-0.128
23,ACGCCTTC,0.0216
24,CCCACTCG,0.207
25,ACCTTTCC,-0.205

row,Sequence,PBM E-score
1,ATTAGTTC,0.0121
2,CGAGGGGC,0.129
3,CGCAGGAC,-0.0476
4,CATATATG,-0.192
5,AAAAGTTG,-0.0845
6,TAGGGCCA,-0.249
7,TAGGCTGA,-0.152
8,CGCCAATC,0.0407
9,ACCGTCAG,-0.052
10,CAAACTCA,-0.134
11,CGCGACTA,0.178
12,GGCCCTGA,-0.159
13,TATGTTAA,-0.00891
14,AAAAGACT,-0.14
15,AATGTCAT,0.0384
16,CGCTCTAA,0.12
17,GACGAGAC,0.029
18,TACTTGGA,0.0081
19,ATACAGCA,-0.00981
20,GTGACGGA,-0.0946
21,CAGCCGGG,-0.261
22,ATCGGACG,-0.02
23,ACTAGCGG,-0.145
24,GGTGAAGA,0.0382
25,CAAGGAAA,-0.0804

row,Sequence,PBM E-score
1,TAGAGTCA,-0.316
2,GTTTTCCA,0.061
3,ATGCTCCC,-0.0522
4,CGCATTGA,0.00604
5,ATTCAGGG,-0.289
6,CTCTGAAC,-0.0823
7,CGGATGAC,0.0835
8,CGTATTAC,0.357
9,GAGTTTAA,0.128
10,GACCCTAA,-0.0789
11,CGCTTGAC,-0.0297
12,AATCTAGT,0.015
13,AGGGGGAA,-0.122
14,ACTTCTTC,0.0112
15,GAGCAAGC,-0.0288
16,AACTACAG,-0.118
17,AAGGTCAC,-0.151
18,CCTGCTGA,-0.147
19,CCCCTCTA,-0.112
20,TCAGAAAA,-0.162
21,TACGGTGA,0.319
22,CTCTGCCC,-0.152
23,AAGGACTA,-0.284
24,GCCAGGGC,-0.169
25,CGCCCTCC,-0.203

row,Sequence,PBM E-score
1,AGCGGGCC,-0.0214
2,AAGGTTGA,-0.153
3,CCGAACAA,0.127
4,CGTTCACA,0.294
5,CTCAGCAG,-0.109
6,CACCAGGA,-0.118
7,ACAAATTG,0.179
8,CCTGGTTA,-0.278
9,ATATCCGG,0.102
10,TCTCAGCA,-0.206
11,GCTATCAC,-0.132
12,GTACGCGA,0.327
13,TGGCCACA,-0.294
14,AGGATGCA,-0.0202
15,AGTAATCA,-0.0686
16,ATCCGTTA,0.177
17,CAAAGACA,-0.114
18,GAACGCAC,0.179
19,ACGTCCTA,-0.198
